According to the supplement of paper PMC9151546:
Most values come without repeats; read them as rough.

Assays:
CHO-K1 [1] = assay: micronucleus frequency (% of nucleated events); higher = more micronuclei (genotoxic)
CHO-K1 [2] = assay: hypodiploid nuclei frequency (% of nucleated events); higher = more hypodiploid events (aneugenic)
CHO-K1 [3] = assay: relative survival (nuclei to bead ratio vs DMSO control) (% of vehicle control); higher = more surviving cells
Method: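 Flow-cytometric in vitro micronucleus assay (Litron MicroFlow) in CHO-K1 cells in 96-well plates, 19 concentrations (4.5-200 µM, n=1 per concentration). Without S9, cells were exposed for 24 h and sampled at 48 h. With Aroclor 1254-induced rat liver S9, cells were exposed for 3-4 h and sampled at 27-28 h. Read-outs are %MN and %hypodiploid nuclei relative to nucleated events, and relative survival as the nuclei-to-bead ratio versus the 1% DMSO vehicle control (x100).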
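Throughout, for hypodiploid nuclei frequency (% of nucleated events): hypodiploid nuclei gated on a flow cytometer with 488 nm excitation after SYTOX Green staining, cultures at 37 °C, positive controls vinblastine without S9 and cyclophosphamide with S9.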
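Throughout, for micronucleus frequency (% of nucleated events): cells lysed with nuclei stained by SYTOX Green, then micronucleus-gated events counted against nucleated events by flow cytometry with 488 nm excitation.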
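Throughout, for relative survival (nuclei to bead ratio vs DMSO control): Lysed-cell nuclei stained with SYTOX Green and counted against counting beads by flow cytometry at 488 nm excitation, with vinblastine (no S9) and cyclophosphamide (plus S9) as positive controls.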

O=[N+]([O-])c1ccc(Cl)c(Cl)c1 [3,4-Dichloronitrobenzene]
Conditions | hypodiploid nuclei frequency, CHO-K1 [2] [%] | micronucleus frequency, CHO-K1 [1] [%] | relative survival, CHO-K1 [3]
concentration: 4.5 (µM), S9 metabolic activation: with S9, exposure time: 3-4 hours | 0.24 | 1.48 | 100
concentration: 4.5 (µM), S9 metabolic activation: without S9, exposure time: 24 hours | 0.4 | 1.46 | 109
concentration: 5.63 (µM), S9 metabolic activation: with S9, exposure time: 3-4 hours | 0.14 | 1.16 | 81.1
concentration: 5.63 (µM), S9 metabolic activation: without S9, exposure time: 24 hours | 0.62 | 1.36 | 119
concentration: 7.04 (µM), S9 metabolic activation: with S9, exposure time: 3-4 hours | 0.26 | 1.26 | 75.2
concentration: 7.04 (µM), S9 metabolic activation: without S9, exposure time: 24 hours | 0.84 | 1.32 | 93.9
concentration: 8.8 (µM), S9 metabolic activation: with S9, exposure time: 3-4 hours | 0.24 | 1.22 | 74.9
concentration: 8.8 (µM), S9 metabolic activation: without S9, exposure time: 24 hours | 2.02 | 1.32 | 113
concentration: 11 (µM), S9 metabolic activation: with S9, exposure time: 3-4 hours | 0.24 | 1.4 | 78
concentration: 11 (µM), S9 metabolic activation: without S9, exposure time: 24 hours | 0.8 | 1.22 | 89.6
concentration: 13.7 (µM), S9 metabolic activation: with S9, exposure time: 3-4 hours | 0.34 | 2.1 | 88.8
concentration: 13.7 (µM), S9 metabolic activation: without S9, exposure time: 24 hours | 2.36 | 2.1 | 106
concentration: 17.2 (µM), S9 metabolic activation: with S9, exposure time: 3-4 hours | 0.36 | 1.68 | 80.8
concentration: 17.2 (µM), S9 metabolic activation: without S9, exposure time: 24 hours | 1.26 | 1.64 | 83.8
concentration: 21.5 (µM), S9 metabolic activation: with S9, exposure time: 3-4 hours | 0.16 | 1.52 | 92.1
concentration: 21.5 (µM), S9 metabolic activation: without S9, exposure time: 24 hours | 1.44 | 1.66 | 102
concentration: 26.8 (µM), S9 metabolic activation: with S9, exposure time: 3-4 hours | 0.16 | 0.94 | 118
concentration: 26.8 (µM), S9 metabolic activation: without S9, exposure time: 24 hours | 0.58 | 1 | 142
concentration: 33.6 (µM), S9 metabolic activation: with S9, exposure time: 3-4 hours | 0.14 | 0.74 | 104
concentration: 33.6 (µM), S9 metabolic activation: without S9, exposure time: 24 hours | 0.66 | 1.26 | 118
concentration: 41.9 (µM), S9 metabolic activation: with S9, exposure time: 3-4 hours | 0.16 | 0.9 | 90.6
concentration: 41.9 (µM), S9 metabolic activation: without S9, exposure time: 24 hours | 0.66 | 1.66 | 111
concentration: 52.4 (µM), S9 metabolic activation: with S9, exposure time: 3-4 hours | 0.24 | 1.04 | 93.6
concentration: 52.4 (µM), S9 metabolic activation: without S9, exposure time: 24 hours | 1.06 | 1.9 | 113
concentration: 65.5 (µM), S9 metabolic activation: with S9, exposure time: 3-4 hours | 0.22 | 1.2 | 90.6
concentration: 65.5 (µM), S9 metabolic activation: without S9, exposure time: 24 hours | 0.82 | 1.34 | 111
concentration: 81.9 (µM), S9 metabolic activation: with S9, exposure time: 3-4 hours | 0.14 | 1.02 | 80
concentration: 81.9 (µM), S9 metabolic activation: without S9, exposure time: 24 hours | 1.16 | 1.48 | 102
concentration: 102 (µM), S9 metabolic activation: with S9, exposure time: 3-4 hours | 0.16 | 1.16 | 103
concentration: 102 (µM), S9 metabolic activation: without S9, exposure time: 24 hours | 0.92 | 1.68 | 104
concentration: 128 (µM), S9 metabolic activation: with S9, exposure time: 3-4 hours | 0.1 | 1.02 | 94
concentration: 128 (µM), S9 metabolic activation: without S9, exposure time: 24 hours | 0.74 | 1.96 | 114
concentration: 160 (µM), S9 metabolic activation: with S9, exposure time: 3-4 hours | 0.12 | 0.94 | 99.9
concentration: 160 (µM), S9 metabolic activation: without S9, exposure time: 24 hours | 1.3 | 1.96 | 91.4
concentration: 200 (µM), S9 metabolic activation: with S9, exposure time: 3-4 hours | 0.18 | 1.4 | 106
concentration: 200 (µM), S9 metabolic activation: without S9, exposure time: 24 hours | 2.94 | 2.36 | 94.6
